Here are results for 25 molecules from PubChem BioAssay AID463173 (ICCB-Longwood Screening Facility, Harvard Medical School, 2010).

Out of some 52,000 compounds screened, about 4,300 (8.3%) were called active. No stated cut-off is given here; in the data, active means survival mostly below about 52% (no sharp cut-off); inactive means mostly above about 56%. Some of the results follow.

The subject of this test is DeltatarO mutant. The test can be described thus: growth inhibition of S. aureus wild type versus tarO mutant, primary screen, teichoic acid synthesis inhibitors, RN4220, OD600 (AID 463173). To be noted: OD600, 18 h, stronger effect = lower value, screened at 18.75 µg/mL (by protocol).
On to `Cc1ccc2[nH]c(=O)c3cc(C(=O)N4CCN(c5ccccc5F)CC4)sc3c2c1`, for which the survival was inactive: 88%.
For `O=C(N/C(=C\c1ccco1)C(=O)N1CCCC1)c1ccccc1`, the survival is inactive: 82%.
`O=C(CSc1nc(-c2ccccc2)cc(=O)[nH]1)Nc1ccccc1F`: the survival is inactive: 89%.
Then `COc1ccc(-c2cnc(NCc3ccc(C)cc3)n2C)cc1`, with inactive: 121%; and `CC1=C(C(=O)Nc2ccc(C)c(C)c2)C2(CCCCCC2)OC1=O`, with inactive: 112%.
Turning to `CCOc1ccccc1CNC(=O)Cn1nc(C)c2nn(-c3ccc(Cl)cc3)c(C)c2c1=O`, the survival was inactive: 101%.
Turning to `COC(=O)COc1ccc(Oc2nc(NC(C)(C)C)nc(N3CCOCC3)n2)nn1`, the survival is inactive: 73%.
In the case of `COc1ccc(N2CCN(S(=O)(=O)c3c(C)nc4sc(C)cn4c3=O)CC2)cc1`, the survival was inactive: 92%.
With `CC1=C(c2ccc(C)c(C)c2)S(=O)(=O)N(Cc2ccc(C(=O)NCc3ccc(C)cc3)cc2)C1=O`, the survival was inactive: 92%.
Regarding `COc1ccc(Cc2nc3c4cnn(-c5ccccc5Br)c4ncn3n2)cc1`, the survival was inactive: 89%.
For `Cc1cccc(OCC(=O)NCc2ccc3c(c2)CCN3C(=O)c2ccccc2)c1`, the survival was inactive: 86%.
As for `CCn1ccc2cc(S(=O)(=O)N3CCC(C(=O)NCc4ccc(OC(C)C)cc4)CC3)ccc21`, the survival is inactive: 95%.
In the case of `O=C(CN1C(=O)c2cccc3cccc1c23)NC1CCCC1`, the survival is inactive: 87%.
Consider `COc1ccc(-c2nc3ccc(C(=O)NCc4ccccc4)cc3nc2-c2ccc(OC)cc2)cc1`, for which the survival was inactive: 90%.
As for `Cc1ccccc1NC(=O)c1ccccc1NC(=O)c1ccccc1F`, the survival was inactive: 70%.
With `CCCSc1nnc2c(n1)OC(CC)N(C(C)=O)c1ccccc1-2` (stereo not given), the survival is inactive: 62%.
In the case of `CSc1ccc(C2c3c(oc4ccc(F)cc4c3=O)C(=O)N2c2ccc(C)cn2)cc1` (stereo not given), the survival is inactive: 81%.
Take `CCOc1ccc2oc(=O)cc(CN3CCN(C(=O)c4ccc(Cl)cc4)CC3)c2c1`: the survival was inactive: 86%.
As for `CCCCc1nn2c(=O)cc(COC(=O)CNC(=O)c3ccccc3C)nc2s1`, the survival was inactive: 98%.
Regarding `Cc1c(NC(=O)c2cc3ccccc3o2)cccc1-c1nc2ccccc2o1`, the survival was active: 36%.
Take `Cc1cccc(N(C)C(=O)C2CCN(S(=O)(=O)c3cccc4nonc34)CC2)c1`: the survival was inactive: 80%.
For the molecule `COc1ccc(OC)c(NC(=O)c2ccc(-c3nc(COc4ccccc4)c(C)o3)cc2)c1`, the survival was inactive: 62%.
On to `Cc1ccc2nc(Nc3ccc(Br)cc3)nc(-c3ccccc3)c2c1`, for which the survival is active: 35%.
Then `Cc1ccc(C(C)C)c(OCCSc2nc(-c3cccs3)nc3cc(=O)[nH]n23)c1`, with inactive: 73%; and `O=C(Cn1c(=O)oc2cc(S(=O)(=O)NCc3ccccc3)ccc21)NCc1ccc(F)cc1`, with inactive: 78%.
